# In PubChem BioAssay AID743279 (National Center for Advancing Translational Sciences (NCATS), 2014):
# Among all 360,000 compounds or so, about 17,000 (4.7%) were called active. The inconclusive results got no clear call from the source; some entries with a clear call stand among them for comparison. No stated cut-off is given here; in the data, active means activity change below about -50%; inconclusive means mostly about -30% to -49%; inactive means weaker than that.
# Test: qHTS for Inhibitors of Inflammasome Signaling: IL-1-beta AlphaLISA Primary Screen
# Conditions: THP-1 LPS/ATP IL-1B secretion, 16 h; at 57.5 µM, hits give low values
# From the text: Inflammasomes are a set of intracellular multi-protein complexes that enable autocatalytic activation of inflammatory caspases and drive the innate immune response to counter harmful agents. […] A qHTS assay, based on AlphaLISA technology, was developed to screen the Molecular Libraries Small Molecule Repository (MLSMR) to look for novel inflammasome inhibitors. The assay detects IL-1B using AlphaLISA anti-IL-1B acceptor and donor beads. A decreased emission signal, indicating reduced IL-1B secretion, is the desired outcome for this assay. NIH Chemical Genomics Center [NCGC] NIH Molecular Libraries Probe Centers Network [MLPCN] MLPCN Grant: MH095513 Assay Provider: Shyam Biswal Ph.D., Johns Hopkins University Immunity. 2012 Jul 27;37(1):85-95. PMID: 22819042 [2] Curr Pharm Des. 2012;18(16):2320-8. PMID: 22390695
# Three microliters containing 3000 THP-1 cells were dispensed into the wells of solid, white, tissue culture treated Greiner 1,536-well plates. Library compounds and positive control, Glyburide, were pin-transferred (23 nL) by a Kalypsys pin-tool equipped with a 1,536-pin array, resulting in final compound concentration ranges of 2.5 nM to 57.5 uM. After 1 hr of cell culture incubation (37 °C, 5% CO2), 1 microL of 1 microg/mL lipopolysaccharide (250 ng/mL, final) and 5 mM ATP (1.25 mM, final) were added to stimulate the cells. After 16 hr of cell culture incubation with the compounds, 1.5 uL of anti-IL-1B acceptor beads (6 ug/mL, final) and biotinylated antibody (0.6 nM, final) were added to the plate, followed by a 1 hr incubation at ambient temperature. To detect the secreted IL-1B, 1.5 uL of AlphaLISA SA-Donor beads (24 ug/mL, final) were added, followed by 30 min of incubation in the dark at ambient temperature. The AlphaLISA signal was read by a PerkinElmer EnVision plate reader with an ultrasensitive luminescence detector and 1536 Plate HTS AlphaScreen aperture (excitation of 680nm and emission of 615nm).
# On the % scale 0 is the no-effect control and ±100 the full control effect.
row,SMILES,activity change
1,CC(CN1CCNCC1)(NS(=O)(=O)c1ccccc1)c1ccccc1 (stereo not given),inconclusive: -42%
2,CCOc1ccc(NC(=S)N(Cc2ccc(Cl)cc2)Cc2ccco2)cc1,inconclusive: -38%
3,Nc1c(-c2ccc(Cl)cc2)cnn1-c1cccc([N+](=O)[O-])c1,inactive: -1.32%
4,COc1ccc(C2c3[nH]c4ccccc4c3CCN2C(=O)c2cn3ccccc3n2)c(F)c1 (stereo not given),inconclusive: -34.5%
5,COc1ccccc1C(=O)Nc1ccncc1,inconclusive: -47.6%
6,CCOc1[nH]n(-c2ccccc2)c(=O)c1C=Nc1ccc(C)cc1,inactive: -25.3%
7,COc1ccccc1NC(=O)c1ccc(NC(=O)CSc2nc(N)cc(=O)[nH]2)cc1,inconclusive: -30.8%
8,Cc1cc(C)c(N2C(=O)CC(Sc3ccccc3N)C2=O)c(C)c1 (stereo not given),inactive: 32.7%
9,COc1ccc(NC(=O)c2ccc(COCC(F)(F)C(F)F)cc2)cc1,inactive: -5.76%
10,COCC(=O)Oc1cc(-c2ccc(C)cc2C)c(OC(=O)COC)c(-c2ccc(C)cc2C)c1,inconclusive: -37.6%
11,CCOC(=O)C1CCCCN1Cc1cn(C)nc1-c1ccccc1F (stereo not given),inconclusive: -37.9%
12,NC(=O)SCC(=O)Nc1ccc(Cl)cc1,active: -88.7%
13,CN(Cc1ccccc1)C(=O)c1nc2ccccn2c1CN1CCc2sccc2C1,active: -93.7%
14,NCCCC[C@H]1CNC(=S)N1CCc1cc(C(F)(F)F)cc(C(F)(F)F)c1,active: -50.9%
15,COc1ccc2nc(NCCNC(=S)NCCCN3CCOCC3)c(C#N)cc2c1,inconclusive: -45.1%
16,COc1ccc(NC(=O)CC2C(=O)N(c3cccc(C)c3)C(=O)N2C2CCCCC2)cc1 (stereo not given),inconclusive: -31.1%
17,CC(C)(C)C(=O)C(Cl)C(=O)Nc1ccccc1 (stereo not given),inconclusive: -43.2%
18,Cc1ccc(NC(=S)Nc2ccc3[nH]c(=O)[nH]c3c2)cc1,inconclusive: -37.2%
19,CN1CCN(c2ccc(NC(=O)COc3ccccc3Cl)cc2)CC1,inconclusive: -44.4%
20,CC(C)(C)c1cc(Cl)ccc1OCCOCCN1CCCC1,active: -74.6%
21,COc1nc(NC2CCCCC2)nc(NC(C)(C)C)n1,inconclusive: -47.7%
22,O=C1c2sc3nc4c(c(=O)n3c2C(=O)N1c1ccccc1)CCC4,inconclusive: -32.7%
23,CCOC(=O)C1C(c2ccc(OC)c(OC)c2)c2c([nH][nH]c2=O)CC1(C)O (stereo not given),inconclusive: -42%
24,CCOc1ccccc1NC(=O)C(=O)N/N=C/c1ccc([N+](=O)[O-])cc1,inactive: -19.6%
25,CCc1nc(Nc2ccc(F)cc2)c2oc3ccccc3c2n1,inconclusive: -34.2%
26,CCCCOc1ccc(C(=O)C(CN2CCOCC2)c2ccccc2)cc1 (stereo not given),active: -97.8%
27,c1ccc(-c2ccccc2OCCOCCN2CCc3ccccc3C2)cc1,active: -75.1%
28,Cc1ccc2[nH]c(O)c(N=NC(=O)CCc3ccccc3)c2c1Br,active: -87.5%

row,SMILES,activity change
1,Cc1cccc(C)c1NC(=O)c1cn(-c2ccccc2)nc1-c1ccccc1,inactive: 7.06%
2,C[C@@H]1CN([C@@H](C)CO)C(=O)c2cc(NC(=O)Nc3ccccc3)ccc2O[C@@H](C)CCCCO[C@H]1CN(C)C(=O)Nc1ccc(C(F)(F)F)cc1,inconclusive: -30.6%
3,COc1ccc(OC)c(NC(=O)CSc2ncccn2)c1,inconclusive: -36.1%
4,CCOC(=O)N1CCN(C(=O)c2ccc(NS(=O)(=O)c3ccc(C)cc3)cc2)CC1,inactive: 0%
5,CC1CCc2c(sc(NC(=O)CSc3nc4c(c(C(F)(F)F)n3)CCc3ccccc3-4)c2C(N)=O)C1 (stereo not given),inactive: 11.3%
6,COc1ccc2c(c1)C=C(C(=O)NCc1ccc(Cl)cc1)CO2,inconclusive: -39.4%
7,CC(=O)Nc1ccc(NC(=O)COc2cc(C)cc3oc(=O)cc(C)c23)cc1,inactive: 12.7%
8,CSc1ccc(/C=C/C(=O)c2ccc(O)cc2)cc1,active: -79.4%
9,C/C(=N\NC(=O)c1c(Cl)cnn1C)c1cccc(NC(=O)c2ccc(C)cc2)c1,inconclusive: -30.9%
10,NC(Cc1ccccc1)c1csc(Nc2ccc(C(F)(F)F)cn2)n1 (stereo not given),active: -53.4%
11,Cc1ccc(OCC(=O)NCCCNC(=O)c2cccnc2)cc1,inactive: 5.96%
12,CCOC(=O)C(C(=O)OCC)N(C#N)c1nc(C)cc(C)n1,inactive: -4.33%
13,Cc1cccc(C)c1NC(=O)c1sccc1SCc1cccc(C(F)(F)F)c1,inconclusive: -40.2%
14,Nc1ccc(-c2cnc3ccccc3n2)cc1,inconclusive: -43.8%
15,Cc1ccccc1Oc1ccc2c(c1)[C@@H]1C[C@H](N(C)C(=S)Nc3ccc(F)cc3)[C@H]([C@H](C)O)C(=O)N1CC2,inconclusive: -38.4%
16,CCCC[n+]1ccn(C2=C([O-])c3ccccc3C(=O)/C2=N\S(=O)(=O)c2ccc(Cl)cc2)c1,inactive: 42.7%
17,O=[N+]([O-])c1c(Nc2ccc(O)cc2)cc(Cl)c2nonc12,active: -101%
18,Cc1ccc(C(=O)N/C(=C/c2ccco2)C(=O)NCCc2c[nH]c3ccccc23)cc1C,inconclusive: -33.1%
19,COc1cccc(Nc2ncccc2C(=O)Nc2ccccc2)c1,inconclusive: -38.4%
20,N#Cc1ccccc1Cn1cc(/C=C/[N+](=O)[O-])c2ccccc21,active: -100%
21,Cc1cc(C)c2nc(N3CCCC(C(=O)NCCCN4CCOCC4)C3)sc2c1 (stereo not given),inconclusive: -35.1%
22,COc1ccc(N(CC(=O)NCc2ccc(Cl)cc2)S(=O)(=O)c2ccccc2[N+](=O)[O-])c(OC)c1,inconclusive: -32.3%
23,CCN(CC)CCNC(=O)c1cc2c(=O)n(C)c3ccccc3c2n1C,inconclusive: -40.5%
24,O=C(c1ccc(CS(=O)Cc2ccc(Cl)cc2)o1)N1CCN(c2ccccc2F)CC1 (stereo not given),inconclusive: -41.7%
25,CCOC(=O)N1CCC(NC(=O)CSCc2nc(-c3ccccc3Cl)oc2C)CC1,inconclusive: -33%
26,O=C(CNc1cccc(C(F)(F)F)c1)N/N=C/c1cn(-c2ccccc2)nc1-c1ccccc1,inconclusive: -49.4%
27,O=C1NC[C@@H](CCCCN2C[C@H](Cc3ccccc3)N(CCc3ccc(O)cc3)C(=O)C2=O)N(Cc2ccccc2)C1=O,inactive: 11.7%
